# In the supplement of paper PMC6531468:
# The list shows a part of the results. These are enrichments in a pooled selection; single values are uncertain. Scores sum up all selected molecules that hold the word; the word was not tested alone.
# Test system: IMP3 KH3-4
# Experiment: 6-mer SELEX enrichment z-score vs GST control; IMP3 is the RNA-binding protein IGF2BP3; higher = more enriched by binding
# Details: construct: KH3-4 (377-579); SELEX round: R4
# Experimental: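 SELEX-seq with GST-tagged IMP3 KH3-4 (Pro377-Lys579) and an N40 RNA pool, round 4. 6-mer z-score of sequence-tag enrichment normalised to the corresponding GST SELEX round; RNA k-mers written as DNA (T for U).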
# Sequence of IMP3 KH3-4 (chain, as listed by the source): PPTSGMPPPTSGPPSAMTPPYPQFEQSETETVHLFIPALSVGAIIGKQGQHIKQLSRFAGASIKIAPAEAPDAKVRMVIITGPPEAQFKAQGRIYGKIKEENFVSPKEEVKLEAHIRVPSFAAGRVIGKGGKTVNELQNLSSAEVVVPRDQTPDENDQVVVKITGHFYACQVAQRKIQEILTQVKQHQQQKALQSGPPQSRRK
row,Sequence,6-mer SELEX enrichment z-score
1,CTTACA,0.777
2,CGCCGG,-0.282
3,AGGTCG,0.557
4,GAGCAC,-0.955
5,GCCTGA,-0.913
6,GGGAAC,-0.07
7,ACGCGC,-0.98
8,CCGCCC,-1.62
9,AGACAT,0.564
10,AAGACT,-0.073
11,AGAGTT,0.264
12,TTGAAC,-0.248
13,CCCTAT,-0.35
14,ACCATT,0.66
15,ATTCCA,0.412
16,CAACCC,-2.99
17,GTCAAT,0.367
18,CGCATC,-0.152
19,CCCCCA,-0.851
20,TCACGT,-0.286

row,Sequence,6-mer SELEX enrichment z-score
1,GCTGCG,-0.132
2,ATAGTG,0.618
3,ATCCCT,-0.447
4,GGCTCA,0.367
5,TGCGGC,1.06
6,TCAACC,-1.19
7,AAGCAA,-0.337
8,GATTCT,0.377
9,GGTAGC,-0.242
10,ATATTA,3.1
11,GCTGGA,0.181
12,TTTATC,0.935
13,AGCGGT,0.071
14,TCTCGC,-0.455
15,ATTGAA,1.75
16,GAGCCA,-1.16
17,CTAGCC,-0.869
18,ATGAGC,-2.55
19,CGCTGG,-0.163
20,ACATGG,1.16
